Some of the results follow. At the low end of the ranking, values are background and their order means little.

The target in the assay is GST-SBP-SLBP (stem-loop binding protein) (UniProt Q14493). Put plainly: targeted RNA Bind-n-Seq.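 Further: DESeq read counts versus GST-SBP nonspecific binding control pulldown.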 The following applies: RBNS binding buffer: 25 mM Tris pH 7.5, 150 mM KCl, 3 mM MgCl2, 0.1% Tween, 0.5 mg/mL BSA, 1 mM DTT; 27 nM protein, 750 pM RNA pool; temperature not stated; high values mean tight binding.
In the case of “GGUCACGUCUCAAUCAACUCAUCUCCCAGGGAAAACCCUGGUUAUCUCAACAGCUCGCAGUCAAG”, the binding signal (log2 fold change) was -0.107.

With “GGUCACGUCUCAAUCAACUCAAUUCCAGGAGUUUCCUCCUGUUUACUCAACAGCUCGCAGUCAAG”, the binding signal (log2 fold change) is -0.0693.

On to “GGUCACGUCUCAAUCAACUCUAUAGAGGGGGGGAAAACCCCUUUACCCUCGUAAUCAACAGCUCGCAGUCAAG”, for which the binding signal (log2 fold change) was -0.125.

Take “GGUCACGUCUCAAUCAACUCUUUUCCCAGGGAAAGCCCUGGUUUAUUCAACAGCUCGCAGUCAAG”: the binding signal (log2 fold change) was -0.186.

For “GGUCACGUCUCAAUCAACUCCUUAGAGGGGGGGAAAACCCCUUUACCCUCCCAUUCAACAGCUCGCAGUCAAG”, the binding signal (log2 fold change) is -0.384.

“GGUCACGUCUCAAUCAACUCUAUCCCAGGAGUUUACUCCUGCAAUCUCAACAGCUCGCAGUCAAG”: the binding signal (log2 fold change) is 0.291.

Turning to “GGUCACGUCUCAAUCAACUCAAGGUCAGGAGUUUUCUCCUGUUAAUUCAACAGCUCGCAGUCAAG”, the binding signal (log2 fold change) was 0.201.

With “GGUCACGUCUCAAUCAACUCAAUCUCCAGGGAAACCCCUGGCUAUGUCAACAGCUCGCAGUCAAG”, the binding signal (log2 fold change) was determined as 0.176.

“GGUCACGUCUCAAUCAACUCUACUCCCAGGGAAAACCCUGGCUUACUCAACAGCUCGCAGUCAAG”: the binding signal (log2 fold change) was -0.211.

Regarding “GGUCACGUCUCAAUCAACUCUAUUCCCAGGGAAAUCCCUGGUUUUUUCAACAGCUCGCAGUCAAG”, the binding signal (log2 fold change) was -0.129.

With “GGUCACGUCUCAAUCAACUCAAACGAGGGGGGGAAAACCCCUUUGCCCUCACAUUCAACAGCUCGCAGUCAAG”, the binding signal (log2 fold change) was -0.0277.

In the case of “GGUCACGUCUCAAUCAACUCACAAGAGGGGGGGAAAACCCCUUUACCCUCAUCCUCAACAGCUCGCAGUCAAG”, the binding signal (log2 fold change) was -0.232.

As to “GGUCACGUCUCAAUCAACUCAUUUUCCAGGGAAACCCCUGGCAUACUCAACAGCUCGCAGUCAAG”, the binding signal (log2 fold change) is 0.224.

Turning to “GGUCACGUCUCAAUCAACUCAACUUCCAGGGAAAGCCCUGGCUAAUUCAACAGCUCGCAGUCAAG”, the binding signal (log2 fold change) turned out to be 0.26.

“GGUCACGUCUCAAUCAACUCAUCUCCAGGAGUUUCCUCCUGCAAACUCAACAGCUCGCAGUCAAG”: the binding signal (log2 fold change) was 0.0075.

“GGUCACGUCUCAAUCAACUCAUCCUCAGGAGUUUACUCCUGCAUACUCAACAGCUCGCAGUCAAG”: the binding signal (log2 fold change) was 0.156.

Regarding “GGUCACGUCUCAAUCAACUCAACUCCAGGAGUUUCCUCCUGUUAUCUCAACAGCUCGCAGUCAAG”, the binding signal (log2 fold change) is -0.0554.

Consider “GGUCACGUCUCAAUCAACUCUUCCCCAGGAGUUUCCUCCUGUAUACUCAACAGCUCGCAGUCAAG”, for which the binding signal (log2 fold change) amounted to 0.19.

“GGUCACGUCUCAAUCAACUCUACUUCAGGAGUUUACUCCUGCUUUUUCAACAGCUCGCAGUCAAG”: the binding signal (log2 fold change) is -0.21.

Regarding “GGUCACGUCUCAAUCAACUCAUUAGAGGGGGGGAAAACCCCUUUACCCUCAUCAUCAACAGCUCGCAGUCAAG”, the binding signal (log2 fold change) was 0.333.

In the case of “GGUCACGUCUCAAUCAACUCUUACGAGGGGGGGAAAACCCCUUUACCCUCUCCAUCAACAGCUCGCAGUCAAG”, the binding signal (log2 fold change) was 0.136.

“GGUCACGUCUCAAUCAACUCUUUCUCCAGGGAAAUCCCUGGUAUUCUCAACAGCUCGCAGUCAAG”: the binding signal (log2 fold change) turned out to be 0.148.

Regarding “GGUCACGUCUCAAUCAACUCUUUAGAGGGGGGGAAAACCCCUUUACCCUCACUUUCAACAGCUCGCAGUCAAG”, the binding signal (log2 fold change) was -0.553.

“GGUCACGUCUCAAUCAACUCAAGUCCCAGGGAAAGCCCUGGUUUAUUCAACAGCUCGCAGUCAAG”: the binding signal (log2 fold change) was -0.113.

Turning to “GGUCACGUCUCAAUCAACUCAAUAGAGGGGGGGAAAACCCCUUUGCCCUCGAAAUCAACAGCUCGCAGUCAAG”, the binding signal (log2 fold change) turned out to be 0.399.

Regarding “GGUCACGUCUCAAUCAACUCUUUUCCAGGAGUUUCCUCCUGCAUUCUCAACAGCUCGCAGUCAAG”, the binding signal (log2 fold change) was found to be 0.153.

On to “GGUCACGUCUCAAUCAACUCCUUAGAGGGGGGGAAAACCCCUUUACCCUCACUAUCAACAGCUCGCAGUCAAG”, for which the binding signal (log2 fold change) was determined as 0.225.

Consider “GGUCACGUCUCAAUCAACUCUUUUCCAGGAGUUUUCUCCUGCUAUGUCAACAGCUCGCAGUCAAG”, for which the binding signal (log2 fold change) is 0.163.

Regarding “GGUCACGUCUCAAUCAACUCAUCGUCCAGGGAAACCCCUGGUAUAUUCAACAGCUCGCAGUCAAG”, the binding signal (log2 fold change) was -0.238.

On to “GGUCACGUCUCAAUCAACUCUUCUCCAGGAGUUUACUCCUGUAAUCUCAACAGCUCGCAGUCAAG”, for which the binding signal (log2 fold change) came out at 0.129.

“GGUCACGUCUCAAUCAACUCAUCCCCCAGGGAAAUCCCUGGUUAUUUCAACAGCUCGCAGUCAAG”: the binding signal (log2 fold change) was -0.0122.

In the case of “GGUCACGUCUCAAUCAACUCUACGCCAGGAGUUUCCUCCUGUAUAUUCAACAGCUCGCAGUCAAG”, the binding signal (log2 fold change) stood at 0.163.

Consider “GGUCACGUCUCAAUCAACUCAAUCCCAGGAGUUUUCUCCUGCAUAUUCAACAGCUCGCAGUCAAG”, for which the binding signal (log2 fold change) came to 0.294.

Consider “GGUCACGUCUCAAUCAACUCUUCUUCAGGAGUUUACUCCUGCAAACUCAACAGCUCGCAGUCAAG”, for which the binding signal (log2 fold change) was determined as 0.129.

Take “GGUCACGUCUCAAUCAACUCAUCGUCCAGGGAAAGCCCUGGUAUUUUCAACAGCUCGCAGUCAAG”: the binding signal (log2 fold change) amounted to 0.0993.

As for “GGUCACGUCUCAAUCAACUCUUCUCCAGGAGUUUACUCCUGCAUUUUCAACAGCUCGCAGUCAAG”, the binding signal (log2 fold change) worked out at 0.0632.

As for “GGUCACGUCUCAAUCAACUCUCUAGAGGGGGGGAAAACCCCUUUGCCCUCAUAAUCAACAGCUCGCAGUCAAG”, the binding signal (log2 fold change) worked out at 0.0506.

(Values after paper PMC5892938.)
